Sequences with one replicate were seen in a single cluster, so their values are uncertain.
Tested on: ATP
Experiment: switch fluorescence ratio, 500 uM ATP over buffer (Cy3 cluster intensity, sum of 5 cycles each) (fold (ratio)); higher = stronger signal-on switching upon ATP binding; sequences stand for … in TCGTCGGCAGCGTCAGATGTGTATAAGAGACAGTTTTTTTTTTTTTTTTTTTTTTTTT…TC
Conditions: aptamer strand: ATP DNA aptamer (quencher-CACCTGGGGGAGTATTGCGGAGGAAGG + anchor), 100 nM annealed; ATP concentration: 500 uM; one replicate
Outline: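 The fluorescence ratio divides summed target-cycle Cy3 intensity by summed buffer-cycle Cy3 intensity for each cluster and is averaged per switch-domain sequence. Cy3-labelled switching-strand clusters on a modified Illumina MiSeq flow-cell were annealed to 100 nM quencher-labelled ATP aptamer, then imaged in selection buffer and again after 15 min with 500 uM ATP at 22 °C. Five such cycles were run, with NaOH stripping and re-annealing between them, and clusters outside 100-1000 RFU were excluded.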
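Further: ATP exposure 15 min at 22 °C before imaging.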

GTGAACACTA
switch fluorescence ratio: 0.99

TTTGTTTGCC
switch fluorescence ratio: 0.994

TGCCGGTATT
switch fluorescence ratio: 1.03

ACTCATTAG
switch fluorescence ratio: 0.999

TAAGGGCGG
switch fluorescence ratio: 1.01

ATACGATCTA
switch fluorescence ratio: 0.979

GAACTAAGAG
switch fluorescence ratio: 0.982

GTGGCAATCG
switch fluorescence ratio: 1.04

GGCTTCAAGG
switch fluorescence ratio: 0.957

TATGGGGGAA
switch fluorescence ratio: 0.987

TAGTAAGTGA
switch fluorescence ratio: 1

ATGGTAAGCC
switch fluorescence ratio: 0.994

GACCCTCAGT
switch fluorescence ratio: 1

ATGTCTTC
switch fluorescence ratio: 0.994

ACCCCTACGG
switch fluorescence ratio: 1.34

TAGATATTCT
switch fluorescence ratio: 0.979

ATGCGCCATT
switch fluorescence ratio: 1.03

AAAATCTTGA
switch fluorescence ratio: 0.952

GCGGTGTGAC
switch fluorescence ratio: 0.994

TGGGGGTA
switch fluorescence ratio: 1.01

ACTCACAAGC
switch fluorescence ratio: 1.77

ACTCGGTTGA
switch fluorescence ratio: 1.06

AAAACTTGCC
switch fluorescence ratio: 1.18

GAAGAACATA
switch fluorescence ratio: 1.02

AAGTATGTG
switch fluorescence ratio: 0.996

TTGGAAGTCT
switch fluorescence ratio: 0.943

TAGAGATGTG
switch fluorescence ratio: 0.95

CAGGTGGGAA
switch fluorescence ratio: 1.12

GCTATCTTGA
switch fluorescence ratio: 1.02

AGAGGTAATT
switch fluorescence ratio: 0.985

TAATGCGGTC
switch fluorescence ratio: 1.01

AAAGCCGGAC
switch fluorescence ratio: 1.08

AAAAGGGCCA
switch fluorescence ratio: 0.99

ACGTAATTTG
switch fluorescence ratio: 1.16

GGTCTAGGGA
switch fluorescence ratio: 0.993

AAATTATCGT
switch fluorescence ratio: 1

GTTGCGTGC
switch fluorescence ratio: 1

GTGGGGTGGC
switch fluorescence ratio: 0.952

GGACATGGAG
switch fluorescence ratio: 0.981

CCTCGACAGG
switch fluorescence ratio: 2

TACCCCCCGA
switch fluorescence ratio: 1.3

ACCTCGGGGG
switch fluorescence ratio: 1.74

CAAGATTAAG
switch fluorescence ratio: 0.975

CACATACTTC
switch fluorescence ratio: 1.34

CAAGAGGAAC
switch fluorescence ratio: 0.995

TGCAACGTGG
switch fluorescence ratio: 0.994

AAGCCTGACC
switch fluorescence ratio: 1.81

CCAGTGCCAA
switch fluorescence ratio: 1.11

TGTAATCTAA
switch fluorescence ratio: 0.991

AGTTCTTCGG
switch fluorescence ratio: 0.965

CAAAACCGGA
switch fluorescence ratio: 1.07

ACGACTGTCA
switch fluorescence ratio: 1.07

TAGTCGAGTG
switch fluorescence ratio: 0.978

TATTGATTAA
switch fluorescence ratio: 0.98

GCTGTGCTGT
switch fluorescence ratio: 0.968

ATAGCATCTG
switch fluorescence ratio: 1.01

TCTTTTCCGG
switch fluorescence ratio: 0.971

CCGAGCCCAA
switch fluorescence ratio: 2.5

ATCCACGAG
switch fluorescence ratio: 1.04

TCACGCTAAA
switch fluorescence ratio: 1.12

TCAAAATTCA
switch fluorescence ratio: 1.11

TAGCCACGCG
switch fluorescence ratio: 0.98

GACGAGAT
switch fluorescence ratio: 2.31

ACGCACTCAT
switch fluorescence ratio: 1.47

TCACATCTAT
switch fluorescence ratio: 1.03

AGCTTTTGCA
switch fluorescence ratio: 1.02

TAAAATTCT
switch fluorescence ratio: 1.02

TTTGTCTCAT
switch fluorescence ratio: 1

TAAGGTATAA
switch fluorescence ratio: 1

CTGCTTAGAC
switch fluorescence ratio: 1.42

GTCGAATAGC
switch fluorescence ratio: 0.988

CGATTCGAC
switch fluorescence ratio: 1.08

CCTTATGATG
switch fluorescence ratio: 0.979

GATAACTTCC
switch fluorescence ratio: 2.54

AACTGGTAAC
switch fluorescence ratio: 1.03

ACCTTAGTGG
switch fluorescence ratio: 1.01

GGCCTGTCGG
switch fluorescence ratio: 1

GATACCGGCG
switch fluorescence ratio: 1.04

TCTATTTAAG
switch fluorescence ratio: 1.01

GCCTCTTGCC
switch fluorescence ratio: 0.977

AAGCTGATCG
switch fluorescence ratio: 1.01

TAATAGCGCG
switch fluorescence ratio: 0.995

ACCTTGTCTT
switch fluorescence ratio: 1.03

CTTGGGTGCA
switch fluorescence ratio: 1.05

CTACAGGCAT
switch fluorescence ratio: 1.05

ACAAAACTAC
switch fluorescence ratio: 1.12

TCCGGAAGAT
switch fluorescence ratio: 1.01

TCAGTATAAG
switch fluorescence ratio: 0.958

TCGAGACGGG
switch fluorescence ratio: 0.995

AGGGGAACCT
switch fluorescence ratio: 1.24

ATACTAGGGA
switch fluorescence ratio: 0.998

TGAGCGTCTG
switch fluorescence ratio: 1.02

GGGCAAGATG
switch fluorescence ratio: 1.06

AGATGGTTAA
switch fluorescence ratio: 1.01

TTTTCACCAT
switch fluorescence ratio: 1

TTAGGGCCTT
switch fluorescence ratio: 1.04

GCTTGTGGTA
switch fluorescence ratio: 1

GATCTAAGTG
switch fluorescence ratio: 0.981

CAAATGAGAG
switch fluorescence ratio: 1.03

CACTCGGTTT
switch fluorescence ratio: 1.11

TCCTTCTCCT
switch fluorescence ratio: 1.19

AATTGTATGA
switch fluorescence ratio: 0.994

CAAATGGGTA
switch fluorescence ratio: 0.982

GGCTTTCTGA
switch fluorescence ratio: 1.02

CGCTAGAAAA
switch fluorescence ratio: 1.04

GATGTAAGGG
switch fluorescence ratio: 1.01

TAAGAGGCAT
switch fluorescence ratio: 1.02

GAGACGCT
switch fluorescence ratio: 1.01

CAAAGTCCAA
switch fluorescence ratio: 1.02

ACTAATGCTA
switch fluorescence ratio: 1.02

TCTTTTTACG
switch fluorescence ratio: 1.04

GAATGAAAGG
switch fluorescence ratio: 0.978

GCTCGTGTAG
switch fluorescence ratio: 1.06

GTCGTAGGAG
switch fluorescence ratio: 0.989

CGAGAAATTG
switch fluorescence ratio: 0.997

TGTGAACGTT
switch fluorescence ratio: 0.997

GTGACGCCGG
switch fluorescence ratio: 0.967

TTGGCCCTAT
switch fluorescence ratio: 1.02

TGGTCCGC
switch fluorescence ratio: 1.96

CCAGATACGT
switch fluorescence ratio: 1.09

TTACGTCGGA
switch fluorescence ratio: 1.06

TAAAGGCACA
switch fluorescence ratio: 1.02

AAATCCAGGG
switch fluorescence ratio: 1.15

GCACCCGTAG
switch fluorescence ratio: 1.1

ATATCTATTG
switch fluorescence ratio: 0.984

ATGTGTAAAT
switch fluorescence ratio: 1.03

TTTTTGTACC
switch fluorescence ratio: 1.03

ACATTTATTA
switch fluorescence ratio: 0.987

TGGATGGCAA
switch fluorescence ratio: 1.02

ATGAGGAGAA
switch fluorescence ratio: 1.03

ACTTACGTT
switch fluorescence ratio: 1.44

GACATTCGGG
switch fluorescence ratio: 1

CGACCTTCCC
switch fluorescence ratio: 2.92

TATTCTGAAG
switch fluorescence ratio: 0.989

AGCAGAATTT
switch fluorescence ratio: 0.981

TTTAAGATCC
switch fluorescence ratio: 0.997

CGCTTGACCG
switch fluorescence ratio: 0.987

ATATAAGTAA
switch fluorescence ratio: 0.998

GCCTTCTGAC
switch fluorescence ratio: 1.91

ACCCTCATTA
switch fluorescence ratio: 1.06

TTATTTTAT
switch fluorescence ratio: 0.979

TATCAATGCA
switch fluorescence ratio: 1.04

ACGAAGGAGG
switch fluorescence ratio: 0.988

CGTCTGGTTT
switch fluorescence ratio: 0.948

GTTTGGCTGC
switch fluorescence ratio: 1.02

ACAGTGACAA
switch fluorescence ratio: 1.07

CCCAAAACGC
switch fluorescence ratio: 1.21

GGATCTTCCG
switch fluorescence ratio: 1.08

GTTTGATGAC
switch fluorescence ratio: 1.07

TCGCAAACCC
switch fluorescence ratio: 1.03

GATTTGAGTT
switch fluorescence ratio: 0.985

GCCGCCTTGC
switch fluorescence ratio: 1.09

CGCGCCGGGA
switch fluorescence ratio: 1.05

AGTCGTATT
switch fluorescence ratio: 0.955

TATAACACTG
switch fluorescence ratio: 1.04

CTTTGATGGT
switch fluorescence ratio: 0.979

GCAAGGACCA
switch fluorescence ratio: 1.05

— the supplement of paper PMC10126150
